Patent US9821054B2 (priority 2011, dated 2017)

Test system: CD4+Foxp3+ Tregs
Test: CD4+Foxp3+ Treg quantification during booster immunization
Details: MS-275 during booster immunization

Question: How did the “increase in the DCT-specific CD8+ to Treg cell ratio” value turn out when `Nc1ccccc1NC(=O)c1ccc(CNC(=O)OCc2cccnc2)cc1` [MS-275, entinostat] was run?
Answer: The value was greater than 3 fold.
